Consider four substances from publication PMC3630886.

Sequences of proteins named here, by UniProt entry; tags and fusion partners are left off. A change or cut given only in a name is not applied to a line headed by its entry.
UniProt P61204: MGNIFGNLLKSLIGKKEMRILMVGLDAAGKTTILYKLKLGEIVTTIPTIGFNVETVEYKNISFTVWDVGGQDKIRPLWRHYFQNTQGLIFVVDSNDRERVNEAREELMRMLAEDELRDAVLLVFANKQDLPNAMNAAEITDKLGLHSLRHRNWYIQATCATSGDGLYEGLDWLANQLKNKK
UniProt P84077: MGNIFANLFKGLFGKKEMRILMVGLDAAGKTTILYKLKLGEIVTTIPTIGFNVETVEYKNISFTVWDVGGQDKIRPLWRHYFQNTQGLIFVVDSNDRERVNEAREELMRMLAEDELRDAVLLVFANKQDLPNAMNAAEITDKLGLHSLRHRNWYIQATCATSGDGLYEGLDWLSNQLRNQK
UniProt P18085: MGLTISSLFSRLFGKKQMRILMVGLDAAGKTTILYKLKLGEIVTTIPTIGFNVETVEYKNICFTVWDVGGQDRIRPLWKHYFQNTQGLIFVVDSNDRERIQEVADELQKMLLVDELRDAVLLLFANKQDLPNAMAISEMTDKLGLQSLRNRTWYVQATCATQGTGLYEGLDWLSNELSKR

The target in test [1] is BIG2 (endogenous) (human (endogenous in HeLa)) (UniProt Q9Y6D5). Nature of the test: co-IP; HeLa cells transfected with HA-tagged ARF mutants for 24 h; endogenous BIG2 immunoprecipitated from cell lysates; input and bound material immunoblotted with anti-HA. On the technique in general: Immunoblotting shows a protein as a band on a membrane.
The target of test [2] is T1, GST chimera containing the DCB (amino acids 1–250) domain of BIG2 (UniProt Q9Y6D5).
T1 sequence: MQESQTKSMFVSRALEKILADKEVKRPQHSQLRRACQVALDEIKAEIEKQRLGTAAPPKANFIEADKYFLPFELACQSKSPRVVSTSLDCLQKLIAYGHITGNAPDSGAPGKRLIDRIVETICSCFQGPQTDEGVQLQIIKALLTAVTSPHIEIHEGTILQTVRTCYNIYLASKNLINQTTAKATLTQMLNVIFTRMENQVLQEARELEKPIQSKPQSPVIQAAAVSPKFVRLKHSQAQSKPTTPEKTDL
Nature of the test: pull-down; lysates of HeLa cells transfected with HA-tagged ARF Q71L mutants for 24 h incubated with purified GST or GST chimeras of BIG2; input and bound material immunoblotted with anti-HA; only the target purified.

These are yes or no findings as the source states them, for the method shown. Binding seen in cells or lysates may run through a third protein. Some binding calls cover weakened binding; strength is not graded here. For some assays here: Sequences can lack the tags named with a protein.

For “ARF3/Q71L, HA-tagged (from UniProt P61204 1-181)”, the binding result in test [1] is recorded as “binds weakly”; in test [2], “no binding”.
Regarding “ARF1/T31N, HA-tagged (from UniProt P84077 1-181)”, the binding entry in test [1] is “binds”.
The same measure, in the same setting: as for “ARF4/T31N, HA-tagged (from UniProt P18085 1-180)”, the entry is “no binding”; as for “ARF3/T31N, HA-tagged (from UniProt P61204 1-181)”, “binds”.
